From patent US20240165252A1, “ANTIBODY-DRUG CONJUGATE AND MEDICAL USE THEREOF” (Shanghai Hansoh Biomedical Co., Ltd., priority 2021, published 2024)

Columns and labels:
NCI-H929 cells = experiment: Killing activity of antibody drug conjugates on tumor cells (CellTiter-Glo); assay type: cell-based
Description: In order to test the killing effect of the antibody drug conjugates of the present disclosure on tumor cells, The BCMA high expression cell line NCI-H929 cells (ATCC deposit number CRL-9068) were used for evaluation. NCI-H929 cells were collected, centrifuged and counted. The cell density was adjusted to 1×10^5 cells/mL with complete medium, and the cells were plated in 60 wells of a white 96-well plate at 100 μL per well with a cell number of 10,000 cells/well. The rest peripheral wells were added with 100 μL DPBS per well. The cell plate was placed in a 37° C., 5% CO2 incubator and cultured overnight. On the second day of the experiment, the antibody-drug conjugate working solution was prepared with complete medium in a 96-well V-bottom plate, starting from a concentration of 133 μM (5-fold dilution and 9 concentrations). After completion of the preparation, the solution was added to a white 96-well plate at 80 μL per well in duplicates. The cell plate was placed in a 37° C., 5% CO2 incubator and the culture lasted for 72 hours. On the fifth day of the experiment, the plate was detected and read. The cell culture plate was taken out. […] The mixture was shaken and mixed, placed in dark and let stand for 10 minutes, and then detected by using the luminescence program of the microplate reader. The IC50 values were calculated using GraphPad Prims software. […]

[1] = test system: NCI-H929 transplanted tumors; experiment: Tumor killing activity in NCI-H929 transplanted tumors in mice; assay type: in vivo
Description: In order to further investigate the inhibition effect of the antibody drug conjugates on the proliferation of tumors formed in vivo, the anti-tumor effect of the antibody drug conjugates of the present disclosure was evaluated after formation of transplanted tumors with NCI-H929 (ATCC deposit number CRL-9068) cell line in mice. 10×10^6 NCI-H929 cells were injected subcutaneously into the back of 6-8 week-old immunodeficient nude mice (NOD-SCID). After 14 days, intravenous injection of the antibody drug conjugates via caudal vein were performed, at a frequency of once/week, continuous administration for two weeks at a dose of 3 mg/kg. Human IgG1 isotype control protein was used as the control at a dose of 3 mg/kg. There were 5 mice in each group of the control group or the administration group. The tumor inhibition rate was calculated by measuring the tumor volume, as follows:
Tumor inhibition rate TGI %=100%−(tumor volume of the administration group on day 14−tumor volume of the administration group on day 0)/(tumor volume of the control group on day 14−tumor volume of the control group on day 0).

B1: ADC2 (y = 4): antibody Ab2 conjugated with Compound D, drug load y determined to be 4 (conjugate)
heavy: QVQLVQSGAEVKKPGASVKVSCKASGYSFSDYEMHWVRQAPGQGLEWIGGIHPGSGGSAYNQKFKGRVTLTVDKSTSTAYMELSSLRSEDTAVYYCTRLDYGYSWAWFPYWGQGTLVTVSA[human IgG1 constant region left out]
light: EIVLTQSPATLSLSPGERATLSCSASSSVIYMNWYQQKPGQSPKIWIYGISNLASGVPARFSGSGSGTDFTLTISSLEPEDFAVYYCQQRSSYPLTFGGGTKVEIKRTVAAPSVFIFPPSDEQLKSGTASVVCLLNNFYPREAKVQWKVDNALQSGNSQESVTEQDSKDSTYSLSSTLTLSKADYEKHKVYACEVTHQGLSSPVTKSFNRGEC
Killing activity on tumor cells in vitro (in words) (NCI-H929 cells): good killing activity | Tumor inhibition effect in vivo (in words) ([1]; NCI-H929 transplanted tumors, 3 mg/kg): good tumor inhibition effect | Tumor inhibition rate (%) ([1]; NOD-SCID mice, 3 mpk intravenous, once/week for two weeks, day 14): 164.67%
